Laboratory results taken from the BET-seq Pho4 binding data (Le et al. 2018).
This is one part of the list. These are noisy estimates, calculated here from bound and input reads.

biological target: T1, Pho4 (S. cerevisiae) (UniProt P07270); test: relative binding free energy (BET-seq); higher = weaker binding; details: reference: library average
T1 sequence: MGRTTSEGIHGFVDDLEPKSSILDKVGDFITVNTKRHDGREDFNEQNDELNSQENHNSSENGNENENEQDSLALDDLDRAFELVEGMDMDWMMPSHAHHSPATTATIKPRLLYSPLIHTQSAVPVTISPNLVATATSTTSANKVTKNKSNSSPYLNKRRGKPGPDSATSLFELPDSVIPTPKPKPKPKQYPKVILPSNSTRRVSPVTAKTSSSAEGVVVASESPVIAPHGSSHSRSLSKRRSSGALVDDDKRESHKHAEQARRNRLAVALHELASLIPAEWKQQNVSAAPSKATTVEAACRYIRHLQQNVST

Sequence	relative binding free energy
ATTATCACGTGGTGCT	0.2 kcal/mol
AAGGGCACGTGAGTTA	0.07 kcal/mol
ATCAGCACGTGATGGG	-0.04 kcal/mol
TGGCTCACGTGTTGTG	0.19 kcal/mol
TATTACACGTGTTAAG	0.13 kcal/mol
TTATGCACGTGTATTA	-0.06 kcal/mol
CTTTTCACGTGTTTAA	0.3 kcal/mol
AGTGTCACGTGGTGTG	0.05 kcal/mol
GTAATCACGTGGACGG	0.2 kcal/mol
AGTGGCACGTGCCGGG	-0.11 kcal/mol
TTGCGCACGTGGGGCA	-0.28 kcal/mol
TGGTTCACGTGGGAGG	0.25 kcal/mol
AGGGTCACGTGGGGAT	-0.01 kcal/mol
CGGAGCACGTGTCGGT	-0.01 kcal/mol
GAATGCACGTGTGGAA	0.2 kcal/mol
TATGGCACGTGTACTT	0.03 kcal/mol
TGTGGCACGTGTCGCG	-0.02 kcal/mol
GTGGGCACGTGGCGGA	-0.2 kcal/mol
GTCTTCACGTGTTGGG	0.36 kcal/mol
ACAGGCACGTGTGGGA	-0.01 kcal/mol
GGGGGCACGTGCGATC	0.02 kcal/mol
AGAGTCACGTGTTAAG	-0.07 kcal/mol
AGTCGCACGTGAGGTG	0.18 kcal/mol

Sequence	relative binding free energy
AGTTTCACGTGTAGAT	0.3 kcal/mol
GTCATCACGTGTGGCT	0.25 kcal/mol
CGGAGCACGTGTGTGT	-0.13 kcal/mol
GTCGTCACGTGCTGTA	0.1 kcal/mol
GTTGACACGTGCGGTG	-0.09 kcal/mol
TAGTTCACGTGAAGTC	0.5 kcal/mol
GTGGTCACGTGGTAAT	0.24 kcal/mol
TTGTTCACGTGATTGC	0.3 kcal/mol
GCATGCACGTGGTGAG	-0.06 kcal/mol
GAGTTCACGTGGTAGA	0.3 kcal/mol
TGCGGCACGTGAGGTA	0.1 kcal/mol
ATAGGCACGTGGGCGT	-0.26 kcal/mol
AAATACACGTGGTAGT	-0.02 kcal/mol
AGTTGCACGTGTACTG	-0.01 kcal/mol
GTGGGCACGTGCGGGC	-0.15 kcal/mol
TTTATCACGTGAGCAT	0.31 kcal/mol
TTTGGCACGTGGCAGC	-0.27 kcal/mol
GTGGGCACGTGGCATA	-0.33 kcal/mol
TTCGTCACGTGTTGTA	0.15 kcal/mol
AATGTCACGTGTTAGT	0.14 kcal/mol
CTCGGCACGTGGTGGG	-0.07 kcal/mol
AGAGTCACGTGTAGGA	0.15 kcal/mol
GGTAACACGTGAATGG	0.14 kcal/mol

Sequence	relative binding free energy
GGTTTCACGTGGCTAG	0.27 kcal/mol
AATTGCACGTGAATAT	0.23 kcal/mol
ATGGTCACGTGTTGCA	0.06 kcal/mol
GATAACACGTGAAGGG	0.41 kcal/mol
CTTAGCACGTGGTGGG	-0.19 kcal/mol
GGTGCCACGTGGGTTT	-0.19 kcal/mol
ATGGCCACGTGAGTTT	0.14 kcal/mol
AGGCTCACGTGATGTG	0.28 kcal/mol
AGGCGCACGTGGCGGA	-0.22 kcal/mol
CGTAACACGTGTGTTG	-0.12 kcal/mol
CGGCTCACGTGGAAGG	0.27 kcal/mol
TAGAGCACGTGTGAGG	0 kcal/mol
GACGGCACGTGGAGGG	0.04 kcal/mol
AACGGCACGTGGTGTA	-0.18 kcal/mol
TGGCTCACGTGTATCG	0.19 kcal/mol
ACATTCACGTGGTTGG	0.24 kcal/mol
ACGTTCACGTGTATGG	0.1 kcal/mol
GGTAGCACGTGGAGTT	0 kcal/mol
GGCAGCACGTGTGCTT	0.12 kcal/mol
GTGAGCACGTGTTAGT	-0.07 kcal/mol
AGTAACACGTGTATTG	0.06 kcal/mol
TTGTGCACGTGCGGTA	-0.14 kcal/mol
GGCGGCACGTGTATGT	0.04 kcal/mol

Sequence	relative binding free energy
TTGATCACGTGCGTGC	0.17 kcal/mol
TCTGTCACGTGTTGCG	0.21 kcal/mol
GGTTTCACGTGGGCCG	0.26 kcal/mol
TGGAACACGTGGTCGA	-0.03 kcal/mol
AGTGTCACGTGACAGA	0.28 kcal/mol
AGATACACGTGTTAGT	0.08 kcal/mol
AAGTGCACGTGTAGGG	0.07 kcal/mol
CTGGGCACGTGTAGTG	-0.05 kcal/mol
TGTGCCACGTGTTTTT	-0.02 kcal/mol
AAAGACACGTGTTGTG	-0.11 kcal/mol
GGATTCACGTGCTTGT	0.25 kcal/mol
CAGGTCACGTGAGTTT	0.22 kcal/mol
TGAAACACGTGTGAGG	0.05 kcal/mol
AAGGTCACGTGGGGCC	-0.05 kcal/mol
TTCTGCACGTGTGAAG	0.17 kcal/mol
TTCAGCACGTGGGATA	-0.23 kcal/mol
AATTGCACGTGTTTGT	0.08 kcal/mol
GGTGACACGTGTCGGG	0.06 kcal/mol
AAGGGCACGTGGAGTT	-0.03 kcal/mol
GGTCACACGTGTGGCT	0.09 kcal/mol
TTTGACACGTGTGGCG	0.04 kcal/mol
TTAAACACGTGATAGG	0.16 kcal/mol
CTTGGCACGTGGGCGG	-0.23 kcal/mol

Sequence	relative binding free energy
ACTGGCACGTGATGTG	-0.05 kcal/mol
GTCAGCACGTGTGGGT	0.03 kcal/mol
GGGTACACGTGAGTTT	0.26 kcal/mol
TTCATCACGTGTGGAT	0.18 kcal/mol
AGGCTCACGTGTGTAT	0.19 kcal/mol
AGGCACACGTGGGGGC	-0.22 kcal/mol
AGGTTCACGTGATTTA	0.32 kcal/mol
TTGGCCACGTGCGTTA	-0.04 kcal/mol
TCAGTCACGTGTCTGT	0.07 kcal/mol
AGTAGCACGTGGCCGG	-0.2 kcal/mol
TTGGGCACGTGCTGGT	-0.17 kcal/mol
ATTATCACGTGCGTGG	0.06 kcal/mol
GGGGGCACGTGCCAGG	-0.26 kcal/mol
ACTTGCACGTGTAAGG	0.12 kcal/mol
TGTGACACGTGTTTGT	0.03 kcal/mol
TGGTGCACGTGGACGA	-0.07 kcal/mol
GGGTCCACGTGTTCTG	0.08 kcal/mol
TGATCCACGTGGTGAG	-0.02 kcal/mol
TGTCACACGTGTATAT	0.09 kcal/mol
AATTGCACGTGGTAGT	-0.11 kcal/mol
GTGAACACGTGGAGGA	-0.06 kcal/mol
AGTTGCACGTGAGCGA	0.25 kcal/mol
GGCCACACGTGGTGTT	0.06 kcal/mol
